Measurements: US12662541B2, “Antibody-drug conjugates against the receptor tyrosine kinase EphA5” (Rutgers, The State University of New Jersey, priority 2021, dated 2026)

Target: T1, rhEphA5 antigen (Homo sapiens, UniProt P54756)
T1 construct: purchased R and D systems 3036-A5
Assay: kd (1/s)
Method: Table printed on a drawing sheet, FIG. 13
Head of the field: kd (1/s)
The patent's description of the figure: FIG. 13 is a table illustrating the single cycle kinetic parameters of chimeric (VH0/VK0) and humanized 11C12 variants (tested as cell culture supernatants) binding to rhEphA5 antigen as determined using the Biacore T200. The relative KD was calculated by dividing the KD of the humanized variant by that of the VH0/VK0 (top row) assayed in the same experiment. The variants marked with ‘*’ have KD values that are within two-fold of, or are better than, the chimeric antibody. The chimeric and selected variants marked in ‘#’ were identified as the main leads for purification. […]
Where the first naming reader finds the target: description_of_the_figure: humanized 11C12 variants (tested as cell culture supernatants) binding to rhEphA5 antigen as determined using the Biacore T200

T1 sequence (P54756 25-1037 limits assumed): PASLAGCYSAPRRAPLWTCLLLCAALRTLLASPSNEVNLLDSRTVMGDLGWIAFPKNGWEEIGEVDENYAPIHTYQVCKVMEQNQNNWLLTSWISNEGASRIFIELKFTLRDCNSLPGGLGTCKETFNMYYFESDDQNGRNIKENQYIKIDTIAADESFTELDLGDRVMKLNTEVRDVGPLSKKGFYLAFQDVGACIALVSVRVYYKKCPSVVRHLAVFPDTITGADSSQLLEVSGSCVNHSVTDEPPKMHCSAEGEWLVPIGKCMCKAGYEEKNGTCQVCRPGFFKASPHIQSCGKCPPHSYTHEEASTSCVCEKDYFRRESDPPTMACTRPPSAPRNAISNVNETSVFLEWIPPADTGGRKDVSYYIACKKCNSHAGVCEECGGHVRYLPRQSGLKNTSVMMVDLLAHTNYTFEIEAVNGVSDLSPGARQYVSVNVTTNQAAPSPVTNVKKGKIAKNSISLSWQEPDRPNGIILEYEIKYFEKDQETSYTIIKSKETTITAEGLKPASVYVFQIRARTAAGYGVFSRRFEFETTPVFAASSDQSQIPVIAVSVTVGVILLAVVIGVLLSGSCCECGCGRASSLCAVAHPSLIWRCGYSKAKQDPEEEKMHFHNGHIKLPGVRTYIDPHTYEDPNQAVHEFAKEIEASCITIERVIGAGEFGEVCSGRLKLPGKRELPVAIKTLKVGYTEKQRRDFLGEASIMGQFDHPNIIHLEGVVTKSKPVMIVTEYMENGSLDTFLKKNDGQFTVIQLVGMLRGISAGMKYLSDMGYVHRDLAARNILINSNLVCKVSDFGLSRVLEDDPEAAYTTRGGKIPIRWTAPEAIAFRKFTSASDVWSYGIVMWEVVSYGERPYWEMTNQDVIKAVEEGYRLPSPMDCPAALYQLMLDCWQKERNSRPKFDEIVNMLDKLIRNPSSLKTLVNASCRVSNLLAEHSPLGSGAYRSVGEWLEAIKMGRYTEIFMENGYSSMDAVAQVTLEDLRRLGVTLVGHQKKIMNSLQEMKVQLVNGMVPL

kd: 0.00127 s⁻¹
B1: VH1/VK0: control antibody produced by transient transfection, humanized VH1 with chimeric VK0 (protein)
heavy chain: EVTLVESGGGLVQPGGSRKLSCAASGFTFSTFGIHWVRQAPGKGLEWVAYISGASTTIYYADTVKGRFTISRDNSKNTLYLQMNSLRSEDTAMYYCARYGTSFPYGLDYWGQGTSVTVSSASTKGPSVFPLAPSSKSTSGGTAALGCLVKDYFPEPVTVSWNSGALTSGVHTFPAVLQSSGLYSLSSVVTVPSSSLGTQTYICNVNHKPSNTKVDKRV[letters of human IgG1 Fc left out]
light chain: DIVMTQSPGSLAVSLGQRATISCKASQSVDYDGDSYMNWYQQKPGQPPKLLIYGASNLESGIPARFSGSGSGTDFTLNIHPVEEEDAASYYCQQSNEDPFTFGSGTKLEIKRTVAAPSVFIFPPSDEQLKSGTASVVCLLNNFYPREAKVQWKVDNALQSGNSQESVTEQDSKDSTYSLSSTLTLSKADYEKHKVYACEVTHQGLSSPVTKSFNRGEC
